Hit rate of the full screen: of about 110,000 compounds, about 230 (0.21%) showed an effect of 50% or more. Some of the results follow.
target: DPAP1 (Plasmodium falciparum, UniProt Q8IIJ9); assay: primary screen, percent inhibition; read by cleavage of a fluorogenic dipeptide substrate; higher = more effect of the substance; parameters: species or system P. falciparum D10 trophozoite lysates; single well
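Further: 30 min substrate incubation versus DMSO and 10 µM JCP410 controls.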

Chain of DPAP1 (Q8IIJ9 whole entry, looked up): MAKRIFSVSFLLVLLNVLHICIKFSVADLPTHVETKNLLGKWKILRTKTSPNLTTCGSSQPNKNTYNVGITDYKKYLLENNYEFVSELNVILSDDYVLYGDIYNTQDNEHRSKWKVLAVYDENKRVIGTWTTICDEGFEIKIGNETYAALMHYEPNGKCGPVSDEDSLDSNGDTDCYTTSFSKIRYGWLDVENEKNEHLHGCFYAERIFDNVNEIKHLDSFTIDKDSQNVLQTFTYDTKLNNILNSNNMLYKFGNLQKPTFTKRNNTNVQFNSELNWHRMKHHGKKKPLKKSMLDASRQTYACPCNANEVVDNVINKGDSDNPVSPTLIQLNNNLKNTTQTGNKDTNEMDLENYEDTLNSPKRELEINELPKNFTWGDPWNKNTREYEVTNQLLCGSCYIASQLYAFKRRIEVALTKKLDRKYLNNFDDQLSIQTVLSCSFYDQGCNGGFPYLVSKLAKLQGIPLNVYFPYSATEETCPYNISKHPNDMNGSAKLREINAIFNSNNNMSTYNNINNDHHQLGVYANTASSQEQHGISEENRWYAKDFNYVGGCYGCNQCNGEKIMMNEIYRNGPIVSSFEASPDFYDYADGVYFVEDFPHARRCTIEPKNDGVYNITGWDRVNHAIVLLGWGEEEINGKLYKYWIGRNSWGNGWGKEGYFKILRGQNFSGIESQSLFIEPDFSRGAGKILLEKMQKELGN

| Compound | % Inhibition @ 10 uM [%] |
| --- | --- |
| Cc1cc(C)n2nc(S(=O)(=O)Nc3c(Cl)nc(C)c(Cl)c3C)nc2n1 | 4.42 |
| COc1ccc2nc3oc(C(=O)NCc4ccc(C)o4)cc3cc2c1 | -3.58 |
| CCCC(=O)Nc1ccc2nc(SCC(=O)N3CCCC3)sc2c1 | -3.63 |
| COc1cc(/C=C2/N=C(c3cccc4ccccc34)OC2=O)cc(OC)c1OC | 3.1 |
| COc1ccc(-c2noc(CNC(=O)c3ccccc3F)n2)cc1 | 3.54 |
| COC(=O)C1=CNC=C(C(=O)OC)C1c1cccc(C)c1 | -2.15 |
| COc1cc(Br)cc(/C=C2/NC(=O)NC2=O)c1OC | 2.17 |
| O=C(NCc1ccccc1Cl)C(=O)Nc1cccc(Cl)c1Cl | 3.44 |
| CC(C)NS(=O)(=O)c1cnccc1N1CCN(CCO)CC1 | 0.0285 |
| O=S(=O)(NCCc1nc2ccccc2n1S(=O)(=O)c1ccccc1)c1ccccc1 | -5.33 |
| N#CC1=C(N)Oc2cc(O)c(Cl)cc2C1c1cccc2ccccc12 (stereo not shown) | 6.8 |
| Cc1ccc(C2OCC3(CO2)SC(N)=NC3=O)cc1 (stereo not shown) | 2.08 |
| Cc1ccccc1C(=O)Nc1cccc(C#N)c1 | 0.408 |
| Cn1c(=O)c2c(nc(CN3CCN(CCO)CC3)n2CCN2CCOCC2)n(C)c1=O | -6.71 |
| CCOc1ccc(C2C(C#N)=C(N)Oc3c2c(C)nn3-c2ccccc2)cc1OCC (stereo not shown) | 4.28 |
| O=C(NCc1cccnc1)C1CCN(S(=O)(=O)c2cccs2)CC1 | -0.601 |
| N#Cc1c2c(nc(N)c1-c1ccccc1)CCCCC2 | -2.97 |
| CCN(CC)C(=O)N1CCc2ccccc2C1CN1C(=O)c2ccccc2C1=O (stereo not shown) | 20.5 |
| Cn1c(=O)c2c(nc(CN3CCc4ccccc4C3)n2Cc2ccccc2)n(C)c1=O | -0.499 |
| CN(Cc1nc(-c2ccccn2)no1)S(=O)(=O)c1ccccc1 | -4.54 |
| Cc1nc2[nH]c(C(F)(F)F)nc2cc1Br | 18.4 |
| CCCCCC(=O)Nc1cc(OC)c(Cl)cc1OC | 4 |
| CCOC(=O)N1CCN(C(=O)C2c3ccccc3C(=O)N(C)C2c2cn(C)c3ccccc23)CC1 (stereo not shown) | 6.28 |

| Compound | % Inhibition @ 10 uM [%] |
| --- | --- |
| COc1cc(/C=C2\SC(=O)N(CC(=O)Nc3ccc(C)cc3)C2=O)cc(Cl)c1OC | 1.89 |
| COc1ccc(NC(=O)c2cc3c(C)nn(-c4ccccc4)c3s2)cc1 | -0.132 |
| CCOc1ccc(CNc2ccc(N3CCN(C(C)=O)CC3)cc2)cc1 | -7.22 |
| O=C(Cc1ccc(Br)cc1)Nc1ccc(Cl)cn1 | -3.65 |
| CCCCNC(=O)c1ccc2c(Cl)c3c(nc2c1)CCCC3 | -0.646 |
| Cc1nnc(C)n1/N=C/c1cccc(Oc2ccccc2)c1 | -0.339 |
| Cn1c2c(c(=O)n(C)c1=O)CN(Cc1ccc3c(c1)OCO3)CN2 | 0.66 |
| Cc1cccc(OCC(O)Cn2c(C)nc3ccccc32)c1 (stereo not shown) | -6.71 |
| CCOc1ccc(C(=O)Nc2cccc3ccccc23)cc1 | -4.35 |
| CCOC(=O)c1sc(NC(=O)CSc2nc(C)c(CC(C)C)[nH]2)nc1C | 1.76 |
| CCOC(=O)c1c(NC(=S)Nc2ccccc2)sc2c1CCN(CC)C2 | 39.5 |
| Cc1ccc(C(=O)N2CCC(c3nc(O)c4nnn(Cc5ccccc5C)c4n3)CC2)cc1 | 0.347 |
| CCCCNC(=O)CSc1nc2ccccc2c2nc3ccccc3n12 | -0.801 |
| COc1ccc(CNC(=O)c2ccnn2C(F)F)cc1OC | 14 |
| O=C(c1ccc(Br)o1)N(Cc1nc(-c2ccccc2)no1)C1CCCCC1 | 3.74 |
| CC(C)C[C@H](NS(=O)(=O)c1ccc(C(C)(C)C)cc1)C(=O)NCC#N | -1.61 |
| COC(=O)c1ccc(/C=C2\N=C(c3cccc(C)c3)OC2=O)cc1 | 4.54 |
| COc1ccc(NS(=O)(=O)c2cccc(C(=O)Nc3ccccc3C(=O)O)c2)cc1 | -0.0369 |
| COc1ccc(CNC2CCCc3ccccc32)cc1 (stereo not shown) | -2.87 |
| CCNc1oc(-c2cccs2)nc1S(=O)(=O)c1ccc(Cl)cc1 | 0.245 |
| O=C(O)C1c2ccccc2C(=O)N(C2CCCC2)C1c1cccs1 (stereo not shown) | 4.33 |
| Cc1ccc(Nc2ncnc3sc4c(c23)CCCC4)c(C)c1 | 4.7 |
| CCOC(=O)/C(C#N)=C/c1c(Oc2ccccc2)nc2c(C)cccn2c1=O | -1.43 |

| Compound | % Inhibition @ 10 uM [%] |
| --- | --- |
| O=C(NCCCN1CCCC1=O)c1ccc2snnc2c1 | -0.0235 |
| COc1ccc(Cl)cc1C(=O)N1CCN(c2ccccc2OC)CC1 | -3.92 |
| Cc1ccc(CCNC(=O)c2ccc3c(c2)ncn3C2CCCC2)cc1 | -4.97 |
| NS(=O)(=O)c1ccc(NC(=O)c2ccccc2Cl)cc1 | 1.48 |
| O=C(Nc1nncs1)C1(c2ccccc2)CCCC1 | 0.9 |
| FC(F)(F)C1CC(c2cccs2)Nc2ncnn21 (stereo not shown) | -4.93 |
| CC(=O)C1=C(O)C(=O)N(C)C1c1ccc(F)cc1 (stereo not shown) | 1 |
| Cc1ccc(C#N)c(SCC(N)=O)n1 | -1.93 |
| CC(C)c1c(O)c2c(n(-c3ccccc3)c1=O)CCCC2 | 3.05 |
| Cc1ccc(C(=O)Nc2cc([N+](=O)[O-])ccc2C)cc1 | 4.6 |
| Cc1[nH]c2ccccc2c1C1N2CC3(C)CN1CC(C)(C2)C3 (stereo not shown) | 6.37 |
| CCOc1cc(CN2CCN(Cc3ccccc3)CC2)ccc1O | 3.9 |
| Cc1ccc(Cc2c(C)nc(C)nc2O)c(C)c1 | 5.26 |
| CCOc1cc(C(=O)O/N=C(\N)c2cccnc2)cc(OCC)c1OCC | 2.25 |
| OCCN1CCN(C2CCCCCC2)CC1 | 3.19 |
| O=C1CC(NCCCCO)C(=O)N1c1ccc(Cl)cc1 (stereo not shown) | 3.46 |
| Nc1c(C(=O)Nc2ccccc2F)sc2nc3c(cc12)CCC3 | -5.82 |
| CCc1ccc(-c2nc(C)c(C(C)=O)n2O)cc1 | 2.32 |
| CN1CCN(Cc2nnc(S)n2-c2cccc(C#N)c2)CC1 | 0.986 |
| O=C(NC1CCCC1)c1ccccc1C(=O)NC1CCCC1 | 3.67 |
| Cc1cc(Cl)ccc1OCCCC(=O)Nc1nc2ccccc2[nH]1 | 0.64 |
